PubChem BioAssay AID624202 (National Center for Advancing Translational Sciences (NCATS), 2012)
Hit rate of the full screen: of about 380,000 compounds, about 4,000 (1.1%) were called active. Inconclusive means that the source gave no clear call. Such entries were picked first, then a sample of the others. Calls come from the whole dose curve; as a rule, active = well fitted activation curve with a large enough effect; inconclusive = small, poorly fitted or top-dose-only effect; inactive = no such curve, though single readings can be large or run the other way. Potencies of inconclusive entries are doubtful fits and often do not repeat.

Experiment: qHTS Assay to Identify Small Molecule Activators of BRCA1 Expression; note: nearly all actives have a fitted effect of over 80% in size
Conditions: MCF7-BRCA1-FFLuc reporter, luminescence, 48 h; activation: at 46.1 µM (top of the series), scaled: vehicle 0%, 10 µM genistein 100% unless noted
Outline: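 MCF7 cells carrying a BRCA1-firefly luciferase reporter (2000 cells/well, phenol-red free MEM) were attached for 2 h at 37 °C, then given compounds for 48 h. Luminescence was read 15 min after luciferase reagent; activity normalized to genistein (10 microM) and DMSO.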
Potency is the fitted concentration of half-maximal effect; tags give direction and shape of the fitted curve.

| Structure (SMILES) | Potency | activation |
| --- | --- | --- |
| O=C(c1ccc(F)cc1)n1ccc(-c2cnc(-c3ccccc3)s2)n1 | inconclusive: 2.24 µM [activator, full curve, poor fit] |  |
| O=c1c2cc(-c3ccccc3)sc2ncn1-n1cccc1 | active: 2 µM |  |
| Cc1noc(C)c1-c1ccc(C(=O)Nc2ccccc2)c2occc12 | inconclusive: 2 µM [activator, partial curve, poor fit] |  |
| Cc1ccccc1OCC(=O)Nc1ccc(N2CCN(C)CC2)c(Cl)c1 | inconclusive: 15.8 µM [activator, partial curve, poor fit] |  |
| COc1cccc(-c2csc(NC(=O)C3CC3)n2)c1 | inconclusive: 2.82 µM [activator, full curve, poor fit] |  |
| CCOc1cccc(C(=O)NC(=S)Nc2cccc(C)c2)c1 | inconclusive: 12.6 µM [activator, partial curve, poor fit] |  |
| COc1ccc(N/N=C(\C#N)C(=N)N2CCCCC2)cc1 | active: 7.94 µM |  |
| Fc1cccc(Nc2ncnc3c2cnn3-c2ccccc2)c1 | inconclusive: 3.16 µM [activator, partial curve, poor fit] |  |
| Cc1cc(-c2cn3ccccc3n2)c(C)n1-c1ccccc1 | inconclusive: 3.16 µM [activator, partial curve, poor fit] |  |
| COc1ccc(O)c(C(=O)c2cnn(C(=O)c3cccc(N(C)C)c3)c2)c1 | inconclusive: 25.1 µM [activator, single point] |  |
| O=C(CCN1C(=O)c2ccccc2C1=O)Nc1ccc(-c2nc3ccccc3s2)cc1 | inconclusive: 2.51 µM [activator, full curve, poor fit] |  |
| Clc1ccc(-c2nnc(C3CCCCC3)o2)cc1 | inconclusive: 12.6 µM [activator, partial curve, poor fit] |  |
| Cc1cccc(NC(=O)N2CCc3ccccc3C2)c1C | inconclusive: 35.5 µM [activator, single point] |  |
| Cc1cc(Cl)cc2sc(NC(=O)c3ccco3)nc12 | inconclusive: 3.55 µM [activator, full curve, poor fit] |  |
| CCC(CC)C(=O)N(CCc1ccc(OC)cc1)Cc1nc2ccccc2c(=O)[nH]1 | inactive |  |
| O=C(Nc1nc2ccccc2[nH]1)C12CC3CC(CC(C3)C1)C2 | inconclusive: 1.26 µM [activator, full curve, poor fit] |  |
| Cc1ccc(S(=O)(=O)c2nc(C)oc2N2CCOCC2)cc1 | inactive |  |
| COc1ccc(C(=O)Nc2ccc(C(F)(F)F)n(C)c2=O)cc1 | active: 11.2 µM |  |
| C(=NOCc1ccccc1)c1ccccn1 | active: 10 µM |  |
| COc1cccc(/C=N/Nc2ccc(Cl)nn2)c1 | inconclusive: 11.2 µM [activator, partial curve, poor fit] |  |
| CCn1c(CNC(=O)Cc2ccc(OC)cc2)n[nH]c1=S | inactive |  |
| N#C/C(=N\Nc1cccc(F)c1)C(=N)N1CCCCCC1 | inconclusive: 1.41 µM [activator, full curve, poor fit] |  |
| O=C(CSc1ccccc1)NCc1ccc(F)cc1 | inconclusive: 8.91 µM [activator, partial curve, poor fit] |  |

| Structure (SMILES) | Potency | activation |
| --- | --- | --- |
| CC(=O)c1ccc(OCc2cc(C(=O)NC3CCCCC3)no2)cc1 | inconclusive: 12.6 µM [activator, partial curve, poor fit] |  |
| CCCCC1(C)Nc2ccccc2-c2nc3ccccc3n21 (stereo not given) |  | inconclusive: 82% [activator] |
| COc1ccc(-c2cn(Cc3ccc(C)cc3)nn2)cc1 | active: 8.91 µM |  |
| CN(Cc1ccccn1)C(=O)c1cc(COc2ccc(F)c(F)c2)on1 | inconclusive: 11.2 µM [activator, partial curve, poor fit] |  |
| Cc1cc(S(=O)(=O)NCc2ccc(N3CCN(C)CC3)cc2)c(C)s1 | inactive |  |
| CC(=O)NC(=S)Nc1sc2c(c1C(N)=O)CCC(C)C2 (stereo not given) | active: 4.47 µM |  |
| COc1ccc(-c2coc3cc(O[C@@H]4O[C@H](CO)[C@@H](O)[C@H](O)[C@H]4O)ccc3c2=O)cc1 | active: 2.82 µM |  |
| CCCCNC(=O)CSc1nc2cc3c(cc2c(=O)n1CCCC(=O)NCCc1ccc(OC)c(OC)c1)OCO3 | inactive |  |
| COc1ccc(S(=O)(=O)N2CCC(C(=O)N(C)Cc3ccc(C)o3)CC2)cc1OC | inactive |  |
| c1ccc2c(c1)NC1(CCCCC1)n1c-2nc2ccccc21 | inconclusive: 3.16 µM [activator, partial curve, poor fit] |  |
| COC(=O)c1cc(Cl)c(NC(=O)c2ccc(C(C)(C)C)cc2)cc1OC | active: 3.55 µM |  |
| Cc1ccc(-n2ncc3c(Nc4cccc(C(=O)O)c4)ncnc32)cc1 | inconclusive: 0.631 µM [activator, full curve, poor fit] |  |
| O=C(NC1CCCC1)c1n[nH]c2ccccc12 | inconclusive: 1 µM [activator, full curve, poor fit] |  |
| COC(=O)c1ccc(CSC2=NCCS2)cc1 | inconclusive: 15.8 µM [activator, single point] |  |
| Cc1cc(-c2nc3cccnc3s2)ccc1NS(=O)(=O)c1cccs1 | inconclusive: 31.6 µM [activator, single point] |  |
| CC(=O)c1ccc(OCc2cc(C(=O)N(C)Cc3ccccn3)no2)cc1 | inconclusive: 35.5 µM [activator, single point] |  |
| CCN=c1scc(C)n1/N=C/c1ccc(O)c(O)c1O | inactive |  |
| O=C1CCCC/C1=C\Nc1ccc(Cl)cn1 | inconclusive: 22.4 µM [activator, single point] |  |
| COc1cccc(NC(=O)c2cccc(Cl)c2)c1 | inconclusive: 7.94 µM [activator, partial curve, poor fit] |  |
| COc1ccc2nc(/C=N/NC(=O)[C@@H]3CCCN3C(=O)OC(C)(C)C)ccc2c1 | active: 7.08 µM |  |
| Cn1c(CCNC(=O)c2ccco2)nc2cc(NC(=O)c3ccccc3Cl)ccc21 | active: 8.91 µM |  |
| O=C(COC(=O)C1CC1)c1c[nH]c2ccccc12 | inconclusive: 11.2 µM [activator, partial curve, poor fit] |  |
